Over roughly 33,000 sequences, “E-score (-0.5 to 0.5)” has its median near -0.011; the highest 2% begin near 0.28. The list shows a part of the results.
The sequences below were run against T1, Gcr1 (UniProt P07261) (assay: PBM E-score (8-mer binding enrichment) (E-score (-0.5 to 0.5)); higher = stronger / more preferred TF binding; most listed sequences are background and not binding sites). Conditions: protein concentration: 100 nM; construct: GST-full length.
T1 sequence: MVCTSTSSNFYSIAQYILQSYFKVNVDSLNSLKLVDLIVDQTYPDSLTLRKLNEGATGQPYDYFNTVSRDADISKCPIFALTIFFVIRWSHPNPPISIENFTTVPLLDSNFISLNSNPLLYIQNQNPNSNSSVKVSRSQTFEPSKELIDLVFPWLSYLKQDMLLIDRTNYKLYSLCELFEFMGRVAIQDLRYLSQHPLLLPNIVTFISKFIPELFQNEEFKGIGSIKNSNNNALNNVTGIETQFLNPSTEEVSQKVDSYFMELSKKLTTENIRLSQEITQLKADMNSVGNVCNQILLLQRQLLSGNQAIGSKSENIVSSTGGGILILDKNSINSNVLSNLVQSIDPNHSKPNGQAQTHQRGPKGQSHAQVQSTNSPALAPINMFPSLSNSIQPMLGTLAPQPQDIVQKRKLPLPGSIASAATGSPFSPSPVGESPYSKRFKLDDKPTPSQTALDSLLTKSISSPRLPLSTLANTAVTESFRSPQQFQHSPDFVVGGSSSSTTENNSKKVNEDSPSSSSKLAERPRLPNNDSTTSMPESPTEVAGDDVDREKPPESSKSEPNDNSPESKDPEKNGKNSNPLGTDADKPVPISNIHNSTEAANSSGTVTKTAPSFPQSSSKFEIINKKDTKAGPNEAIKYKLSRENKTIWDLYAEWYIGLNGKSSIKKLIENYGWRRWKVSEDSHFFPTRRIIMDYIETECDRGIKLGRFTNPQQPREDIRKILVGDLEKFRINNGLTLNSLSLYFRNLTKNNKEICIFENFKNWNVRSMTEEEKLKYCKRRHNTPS
Experimental: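 Universal 'all 10-mer' protein binding microarrays (Agilent AMADID 015681) probed with GST-tagged S. cerevisiae TFs (full-length or DBD) made by in vitro transcription/translation (PURExpress), about 100-200 nM. Bound TF was detected with fluorescent anti-GST. Each ungapped 8-mer (which stands for itself and its reverse complement) is scored by the PBM enrichment score (E-score), a modified Wilcoxon-Mann-Whitney statistic from -0.5 to +0.5, computed with the Universal PBM Analysis Suite. Scale: above 0.35 generally sequence-specific binding.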

Sequence | PBM E-score
ACCGTCAT | -0.0894
ACCACTAG | 0.267
CCTCGACG | -0.143
CGGCCCAG | -0.211
AACCCCAT | 0.225
CAAGCACG | -0.0729
GCGGCGTA | 0.0853
AACCCCAC | -0.0522
GACTCCCC | 0.0306
AGAGGGGG | -0.298
AAACACGG | -0.0152
ACGCGAAG | 0.0871
ACATTGTG | -0.166
ACATGGCA | -0.0219
CAACCCGA | 0.0742
CGTTTCGA | -0.201
ACGTGGCC | -0.174
ATTAATTA | 0.136
AGGAGTGA | -0.0787
AAACTACC | 0.0598
AGTGCAGC | 0.0946
ACGATCGA | -0.179

Sequence | PBM E-score
AGTGACGC | -0.0847
AATATGAT | 0.0787
GTTCCTGA | 0.118
CGCTTTTA | 0.144
ATCACGGC | 0.0519
GAGTAAGA | -0.072
GGACGGGA | -0.169
GCTTAACC | -0.162
AACCACTA | 0.241
GTGCCGGA | 0.169
CCGTCTCG | -0.0715
CTAGAGGC | 0.0669
TGCAGGCA | 0.0947
ACCCTTGG | -0.0616
TCCAGCCA | 0.0161
AGCAAGGC | -0.139
CCAATCGC | -0.176
TACAGTGA | -0.0134
ACAAGTCA | -0.0209
GGCATAAC | -0.249
AACATGGG | 0.0296
CTGTCGGA | -0.0666

Sequence | PBM E-score
ACACGTGG | 0.0635
AGATGCTA | 0.25
AAATGCAT | -0.0522
ATGACAGG | -0.0161
AACAAGGC | -0.133
CACGATTC | 0.0682
GCTCGACA | 0.0183
CAGGCCTC | -0.123
CGAAACAC | 0.13
GACTTCCC | 0.127
TACTGCAA | -0.0122
ACCTGGAG | 0.0814
AACTTGCT | 0.0674
TATTCCGA | 0.0257
CGCATAAC | -0.0637
ATTACGTC | -0.222
AGATTGGA | 0.192
CCTATACC | -0.107
GGCGATCA | -0.0747
CAGACAGG | 0.0378
GAACCTAA | 0.113
GGAGGGAA | -0.0438

Sequence | PBM E-score
CGCCAAAC | -0.0653
AAGGGCTG | -0.15
CCGATATC | -0.147
ACGCGGTG | -0.0712
AATACAAA | -0.00293
GAAGATGC | 0.202
GGTACAAA | -0.128
CTCGATGA | -0.0328
CGCATCGA | 0.0887
AACACCTC | -0.0203
AGCCAGCT | -0.106
TATCACCA | 0.162
ATTGTCCG | -0.0479
CCATAGCG | -0.00534
AATTGCCA | -0.0551
TGCAGCCA | 0.00515
CTAGTGAC | 0.112
AGCCTTCA | -0.16
CGCAGTAG | 0.00028
CATGAGCC | -0.247
